# Source: PubChem BioAssay AID504332 (National Center for Advancing Translational Sciences (NCATS), 2011)
# Values joined by “and” are separate entries in the source; they are usually repeats but may differ in a detail not shown here. Equal values may be shown once. The whole screen tested about 350,000 compounds, of which about 31,000 (8.9%) were called active. This list was built around the results that the source calls inconclusive (neither active nor inactive); the mix of calls is not that of the screen. The call rests on the fitted dose curve; in most records, active means well fitted inhibition curve with a large enough effect; inconclusive means small, poorly fitted or top-dose-only effect; inactive means no such curve, though single readings can be large or run the other way. A potency beside an inconclusive call is a rough fit, not a confirmed value.
# Target: Histone-lysine N-methyltransferase EHMT2 (Homo sapiens) (UniProt Q96KQ7)
# Test: qHTS Assay for Inhibitors of Histone Lysine Methyltransferase G9a; further: nearly all actives have a fitted effect of over 75% in size
# Settings: G9a H3K9 monomethylation, AlphaScreen, 2 h; activity, negative = inhibition: at 59 µM (top of the series) unless noted
# How it was run: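 Chemiluminescent proximity detection of H3K9 monomethylation, read after 10 min bead incubation in the dark. Reaction: 20 nM G9a, 500 nM biotin-H3K9 peptide, 20 uM SAM cofactor, 2 h, room temperature, following 15 min enzyme-compound preincubation.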
# On the % scale 0 is the no-effect control and ±100 the full control effect; potency means the concentration at half of the fitted maximal effect; tags describe the fitted curve by direction and shape.
# Chain of UniProt Q96KQ7 (Q96KQ7 whole entry, looked up): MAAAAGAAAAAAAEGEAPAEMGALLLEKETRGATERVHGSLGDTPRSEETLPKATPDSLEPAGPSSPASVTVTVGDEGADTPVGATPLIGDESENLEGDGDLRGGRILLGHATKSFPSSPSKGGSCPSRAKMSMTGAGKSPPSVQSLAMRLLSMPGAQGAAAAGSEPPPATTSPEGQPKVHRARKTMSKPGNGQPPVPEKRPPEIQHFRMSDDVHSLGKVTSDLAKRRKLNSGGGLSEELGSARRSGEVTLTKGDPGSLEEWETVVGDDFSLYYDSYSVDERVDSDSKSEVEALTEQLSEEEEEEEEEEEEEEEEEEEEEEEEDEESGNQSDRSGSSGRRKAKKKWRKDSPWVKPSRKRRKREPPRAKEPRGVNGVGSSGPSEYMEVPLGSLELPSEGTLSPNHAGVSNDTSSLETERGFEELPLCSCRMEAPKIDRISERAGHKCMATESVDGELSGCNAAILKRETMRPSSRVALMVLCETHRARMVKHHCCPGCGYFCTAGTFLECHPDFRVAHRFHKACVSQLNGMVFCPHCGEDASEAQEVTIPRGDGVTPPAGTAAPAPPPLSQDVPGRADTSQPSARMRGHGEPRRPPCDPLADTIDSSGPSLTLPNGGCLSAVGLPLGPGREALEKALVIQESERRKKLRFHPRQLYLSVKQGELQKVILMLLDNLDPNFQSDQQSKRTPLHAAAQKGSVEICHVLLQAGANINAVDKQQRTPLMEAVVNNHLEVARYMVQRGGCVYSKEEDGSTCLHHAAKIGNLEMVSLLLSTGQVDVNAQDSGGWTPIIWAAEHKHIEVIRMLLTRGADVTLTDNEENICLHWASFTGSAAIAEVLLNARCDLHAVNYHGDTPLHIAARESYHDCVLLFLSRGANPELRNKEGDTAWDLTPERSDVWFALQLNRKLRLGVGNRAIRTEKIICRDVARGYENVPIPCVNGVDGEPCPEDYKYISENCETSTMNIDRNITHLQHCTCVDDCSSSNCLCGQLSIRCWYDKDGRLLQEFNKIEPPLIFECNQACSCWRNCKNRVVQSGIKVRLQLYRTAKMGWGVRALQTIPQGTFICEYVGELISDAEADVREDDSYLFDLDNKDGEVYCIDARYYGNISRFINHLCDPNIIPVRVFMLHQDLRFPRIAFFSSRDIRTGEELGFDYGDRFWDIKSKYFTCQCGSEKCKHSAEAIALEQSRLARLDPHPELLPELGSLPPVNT
SMILES,Potency,"activity, negative = inhibition"
Cc1ccc(-c2nn(CC(=O)Nc3cccnc3)c(=O)c3ccccc23)cc1,"inconclusive: 5.62 µM [inhibitor, full curve, poor fit]",–
Cc1cc(=O)n2[nH]c(C(=O)O)nc2n1,"inconclusive: 35.5 µM [inhibitor, single point]",–
CC(C)CCn1c(Sc2nc3ccccc3o2)nc2c1c(=O)[nH]c(=O)n2C,"inconclusive: 15.8 µM [inhibitor, single point]",–
CCN(c1ccccc1)c1ccc2cc(S(=O)(=O)N3CCCC3)ccc2n1,inactive,–
CN(C)CCCNC(=S)N1CCN(c2nc(-c3ccccc3)cs2)CC1,"inconclusive: 79.4 µM [inhibitor, single point]",–
Cn1c(C(=O)N2CCCC(Nc3ccc(F)cc3)C2)cc2ccccc21 (centres undefined),"inconclusive: 79.4 µM [inhibitor, single point]",–
Cc1ccc(C2=NN(C(=O)c3ccccc3F)C(c3ccccc3F)C2)cc1 (centres undefined),active: 15.8 µM,–
CC(C)C(c1nnnn1C1CCCC1)N(C)C1CCCCC1 (centres undefined),"inconclusive: 3.98 µM [inhibitor, partial curve, poor fit]",–
CCOC(=O)c1c(C)[nH]c(C)c1S(=O)(=O)N1CCCC(C(=O)Nc2ccc(C)cn2)C1 (centres undefined),inactive,–
c1ccc(CCc2nn3c(Cn4cnc5ccccc54)nnc3s2)cc1,active: 3.98 µM,–
O=C(CCCOC(=O)c1ccc(O)cc1O)c1ccc(Br)cc1,"inconclusive: 56.2 µM [inhibitor, partial curve, poor fit]",–
NS(=O)(=O)c1ccc(NC(=O)CN2C(=O)COc3ccc(Cl)cc32)cc1,"inconclusive: 25.1 µM [inhibitor, single point]",–
CCn1c(-c2ccco2)nc2ccccc21,active: 6.31 µM,–
Cc1ccc(C)c(S(=O)(=O)c2nnn3c2nc(NC(C)C)c2sccc23)c1,inactive,–
O=C(O)c1ccc2nc(-c3cc4cccc(O)c4oc3=O)[nH]c2c1,"inconclusive: 3.98 µM [inhibitor, single point]",–
O=C(Nc1ccc(O)cc1)c1ccc2c(c1)C(=O)N(Cc1ccccc1)C2=O,inactive,–
Cc1ccccc1-c1nc(CN(Cc2c(C)nn(C)c2C)C2CC2)c(C)o1,"inconclusive: 56.2 µM [inhibitor, partial curve]",–
O=C(Nc1ccnc(-c2ccncc2)n1)c1ccc(F)cc1,"inconclusive: 31.6 µM [inhibitor, partial curve, poor fit]",–
CC(=O)c1sc(NC(=O)CN2C(=O)C3CCCCC3C2=O)nc1-c1ccccc1 (centres undefined),–,inactive: -5.23% [at 12.7 µM]
CC1CCN(CCc2nc3cc(NS(=O)(=O)c4ccccc4)ccc3n2C)CC1,"inconclusive: 50.1 µM [inhibitor, partial curve, poor fit]",–
Cc1c(C)n(C)c2ccc(C(=O)NCCCN3CCN(C)CC3)cc12,"inconclusive: 44.7 µM [inhibitor, partial curve, poor fit]",–
CN(C)S(=O)(=O)c1ccc(N2CCCC2)c(C(=O)NNC(=O)c2ccc(Br)cc2)c1,"inconclusive: 89.1 µM [inhibitor, partial curve, poor fit]",–
NC(=O)c1ccccc1NC(=O)CSc1nc2ccccc2c(=O)[nH]1,"inconclusive: 79.4 µM [inhibitor, single point]",–

SMILES,Potency,"activity, negative = inhibition"
CCOC(=O)c1oc2ccc(S(=O)(=O)n3nc(-c4cc(OC)c(OC)c(OC)c4)cc3N)cc2c1C,"inconclusive: 35.5 µM [inhibitor, single point] and inconclusive: 50.1 µM [inhibitor, partial curve]",–
Cc1ccc(NC(=O)C2CC(=O)N(C(C)C)C2)cc1C (centres undefined),–,inactive: -0.916% [at 0.501 µM]
CCOC(=O)/C=C1\Nc2ccccc2OC1=O,inactive,–
COc1ccc(CN2CCC(Cc3ccccc3)CC2)cc1OC,active: 50.1 µM,–
O=C(O)C1CC=CCC1C(=O)NNc1c(Cl)cc(Cl)cc1Cl (centres undefined),"inconclusive: 44.7 µM [inhibitor, partial curve, poor fit]",–
CCOC(=O)c1[nH]c2ccc(F)cc2c1NC(=O)Nc1ccccc1OC,"inconclusive: 79.4 µM [inhibitor, single point]",–
O=C(N/N=C/c1ccncc1)c1cc2ccccc2cc1O,"inconclusive: 14.1 µM [inhibitor, partial curve, poor fit]",–
O=S(=O)(Nc1ccc(O)c(Sc2nc3ccccc3s2)c1)c1ccc(F)cc1,inactive,–
CCOc1cc(/C=C/C(=O)c2ccc(OC)c(CN3CCOCC3)c2)cc(Br)c1O,active: 44.7 µM,–
O=C1COc2ccc(C(=O)c3ccccc3C(=O)O)cc2N1,"inconclusive: 89.1 µM [inhibitor, single point]",–
CCc1cc(C(c2cccc(OC)c2)N2CCOCC2)c(NC(=O)c2ccccc2)s1 (centres undefined),inactive,–
Cc1ccccc1NC(=S)N(CCc1c(C)[nH]c2ccc(F)cc12)Cc1cccnc1,active: 56.2 µM,–
O=C(O)c1cc(NC(=O)c2ccco2)cc(NC(=O)c2ccco2)c1,"inconclusive: 89.1 µM [inhibitor, single point]",–
Cc1ccc(SCCOCCN2CCOCC2)cc1,"inconclusive: 89.1 µM [inhibitor, single point]",–
O=C(CSc1nc2ccccc2c(=O)n1-c1ccc(F)cc1F)Nc1ccc(N2CCOCC2)cc1,"inconclusive: 28.2 µM [inhibitor, single point]",–
Cc1ccc(NC(=O)c2cc(N3C(=O)C=CC3=O)ccc2Cl)cc1C,active: 1.58 µM,–
CCc1nn(CC(=O)NCCN2CCN(C)CC2)c(=O)c2cc3c(OC)cccc3n12,"inconclusive: 79.4 µM [inhibitor, single point]",–
O=C(CCCN1C(=O)C(c2ccccc2)Oc2cccnc21)Nc1ccccc1C(F)(F)F (centres undefined),inactive,–
O=C(NCc1ccccc1)c1cccnc1,"inconclusive: 56.2 µM [inhibitor, partial curve, poor fit]",–
CCc1c(C)sc(NC(=O)c2ccco2)c1C(=O)N1CCCCC1,"inconclusive: 3.16 µM [inhibitor, partial curve, poor fit]",–
O=[N+]([O-])c1ccc(N2CCCCC2)cc1N1CCOCC1,inactive,–
O=C(NC(=S)NC1CCSC1=O)c1ccccc1 (centres undefined),"inconclusive: 15.8 µM [inhibitor, partial curve, poor fit]",–
Cc1ccccc1OCCC(=O)OCC(=O)Nc1c(C)nn(-c2ccccc2)c1C,"inconclusive: 50.1 µM [inhibitor, partial curve, poor fit]",–

SMILES,Potency,"activity, negative = inhibition"
CC(C)[C@H](NC(=O)N1c2ccccc2NC(=O)[C@@H]1C(C)C)C(=O)N[C@H](Cc1ccccc1)C(=O)O,–,inactive: 5.87% [at 12.7 µM]
CCOC(=O)c1[nH]c2ccc(OC)cc2c1NC(=O)C(C)N1CCSCC1 (centres undefined),"inconclusive: 39.8 µM [inhibitor, single point]",–
O=[N+]([O-])c1ccc(SCCc2ccncc2)cc1,active: 11.2 µM,–
N#Cc1ccccc1COC(=O)CCCC1=NS(=O)(=O)c2ccccc2N1,inactive,–
CCOC(=O)N1CCN(C(=O)CSc2nnc(C3COc4ccccc4O3)o2)CC1 (centres undefined),"inconclusive: 89.1 µM [inhibitor, single point]",–
Cc1cc(NCCCn2ccnc2)n2nc(C)c(-c3ccc(Cl)cc3)c2n1,"inconclusive: 44.7 µM [inhibitor, partial curve]",–
COc1ccc(/C=C2\N=C3CCCCCN3C2=O)cc1,"inconclusive: 50.1 µM [inhibitor, partial curve]",–
COCC(C)NC(=O)c1cc(-c2ccc(O)cc2)on1 (centres undefined),"inconclusive: 25.1 µM [inhibitor, single point]",–
O=C(N/N=C/c1cccn1-c1ccc([N+](=O)[O-])cc1)C(O)c1ccccc1 (centres undefined),active: 44.7 µM,–
Cc1cccc(NC(=O)c2cc3c(=O)n4cccc(C)c4nc3s2)c1C,inactive,–
COc1ccc(-c2csc(/C(C#N)=C(\O)CSc3nccn3C)n2)cc1OC,active: 44.7 µM,–
Cc1[nH]ncc1-c1ccccc1Cl,"inconclusive: 79.4 µM [inhibitor, partial curve, poor fit]",–
N#C[C@@H]1[C@@H]2C(=O)N(c3ccc4c(c3)OCCO4)C(=O)[C@@H]2C2c3ccccc3C=CN21 (some centres undefined),active: 7.94 µM,–
CCC(C)(C)c1ccc(OCC(=O)N(C)C)c(C(C)(C)CC)c1,inactive,–
COc1ccc(NC(=O)N2CC3(CCN(S(C)(=O)=O)CC3)C2)cc1,–,inactive: 6.76% [at 12.7 µM]
O=C(c1cnccn1)N1CCC2(CC1)CN(Cc1nccs1)C2,–,inactive: 0.16% [at 12.7 µM]
COc1ccccc1NC(=O)C1=C(C)Nc2nnnn2C1c1ccncc1 (centres undefined),"inconclusive: 79.4 µM [inhibitor, single point]",–
Cc1ccc(CNC(=O)Nc2ccc(F)cc2F)n1C,"inconclusive: 50.1 µM [inhibitor, partial curve, poor fit]",–
Cc1ccc2nc(SCC(=O)c3c(N)n(C4CC4)c(=O)[nH]c3=O)[nH]c2c1,active: 17.8 µM,–
Cc1ccc2nc(Cl)c3nnnn3c2c1,inactive,–
Cc1cc(C(=O)N2CCOCC2)n(-c2ccccc2)n1,"inconclusive: 39.8 µM [inhibitor, single point]",–
O=S(=O)(Nc1c(F)cccc1F)c1ccc(Cl)nc1,"inconclusive: 12.6 µM [inhibitor, partial curve, poor fit]",–
O=C(Nc1nc(-c2ccccc2)cs1)c1ccco1,"inconclusive: 50.1 µM [inhibitor, partial curve, poor fit]",–
